This note sets out measurements from US4935362A, “BMY-28121, a new antitumor antibiotic” (Bristol-Myers Company, priority 1987, dated 1990).

Structures are written as SMILES. Like-named read-outs stand apart in the source and are kept apart here.

With `COc1cccc2c1N[C@H](O)[C@@H]1CC(/C=C/C(=O)N(C)C)=CN1C2=O` [BMY-28121 A], the solubility result by setting is: (in ethyl acetate and ethyl ether) “slightly soluble”; (in methanol, ethanol, chloroform, pyridine, and dimethylformamide) “readily soluble”; (in n-hexane and water) “practically insoluble”.
